Results as given in PubChem BioAssay AID686979 (National Center for Advancing Translational Sciences (NCATS), 2013).
The whole screen tested about 420,000 compounds, of which about 50,000 (12%) were called active. The shares of active, inactive and inconclusive entries below differ from those in the screen. The call rests on the fitted dose curve; in most records, active means well fitted inhibition curve with a large enough effect; inconclusive means small, poorly fitted or top-dose-only effect; inactive means flat fitted curve, though single readings scatter. Potencies of inconclusive entries are left out as doubtful fits.

test: qHTS for Inhibitors of human tyrosyl-DNA phosphodiesterase 1 (TDP1): qHTS in cells in presence of CPT; details: chicken DT40 Tdp1-/-;hTDP1 cells + 20 nM CPT, ATP luminescence, 48 h; activity change, negative = growth inhibition: at 46.2 µM (top of the series) unless noted; further: nearly all actives have a fitted effect of over 55% in size
Procedure, shortened: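 Chicken DT40 Tdp1-/- cells complemented with human TDP1, 400 cells/well, exposed to compounds plus 20 nM camptothecin for at least 48 h at 37 C; viability read as ATP content by CellTiter-Glo luminescence.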
On the % scale 0 is the no-effect control and ±100 the full control effect; potency means the concentration at half of the fitted maximal effect; tags describe the fitted curve by direction and shape.

With `Cn1cccc1C(=O)N1CCC2(CC1)CN(Cc1ccc(C#N)cc1)C2` as the molecule, how does the “activity change, negative = growth inhibition” value read?
Its value is inactive: -0.251%.

For `CCCn1c(SCC(=O)Nc2cccc(S(=O)(=O)N(C)C)c2)nc2ccccc2c1=O`, which Potency is on record?
Its Potency is inconclusive [inhibitor, single point].

For `Cc1ccc(S(=O)(=O)C[C@@H]2OC3CCCCC3N2S(=O)(=O)c2ccc(C)cc2)cc1` (stereo not given in full), which Potency is on record?
The Potency was inconclusive [inhibitor, single point].

Which Potency does the source give for `COC(=O)C(Cc1ccc(OC(=O)c2ccc(C(F)(F)F)cc2)cc1)N1Cc2ccccc2C1=O` (stereo not given) here?
The Potency was active: 16.4 µM.

With `CSCC[C@H](NC(=O)C1CCN(S(=O)(=O)c2ccc(C)cc2C)CC1)c1nc2ccccc2[nH]1` as the molecule, how does the Potency read?
The Potency was inconclusive [inhibitor, single point].

For `CCOc1ccccc1NC(=O)COc1coc(CN2CCCc3ccccc32)cc1=O`, which Potency is on record?
The Potency was inconclusive [inhibitor, single point].

Which “activity change, negative = growth inhibition” value does the source give for `COc1ccc(CNC(=O)c2cc(-c3ccc(Cl)cc3)n[nH]2)cc1` here?
The value was inactive: 13.6%.

With `O=C1c2ccccc2C(c2nnnn2Cc2ccccc2)N1Cc1cccs1` (stereo not given) as the molecule, how does the Potency read?
Its Potency is “inactive”.

For `O=C(CCCCn1c(=O)c2ccccc2n(Cc2cccc(Cl)c2)c1=O)NCc1ccc2c(c1)OCO2`, which Potency is on record?
The Potency was inconclusive [inhibitor, single point].

For `COc1cccc(NC2c3ccccc3C(=O)N2Cc2ccco2)c1` (stereo not given), which Potency is on record?
The Potency was active: 20.6 µM.

With `COc1ccc(/C=N\NC(=O)c2ccc(-c3ccccc3)cc2)cc1COC(C)=O` as the molecule, how does the Potency read?
Its Potency is inconclusive [inhibitor, single point].

For `COc1ccc(NC(=O)N(CCCN(C)C)Cc2cc3cc(OC)ccc3[nH]c2=O)cc1`, which Potency is on record?
The Potency was inconclusive [inhibitor, single point].

Which Potency does the source give for `CCOC(=O)c1c(CSc2nc(C)cc(C)c2C#N)n(C)c2cc(Br)c(OC(C)=O)cc12` here?
The Potency was inconclusive [inhibitor, single point].

Which Potency does the source give for `O=C(NN=C1CCCCCCC1)c1ccc2ccccc2n1` here?
Its Potency is inconclusive [inhibitor, partial curve].

For `C=CCn1c(C)cc(C(=O)COC(=O)/C=C/c2c(C)nn(C3CCS(=O)(=O)C3)c2Cl)c1C` (stereo not given), which Potency is on record?
Its Potency is inconclusive [inhibitor, single point].

Which Potency does the source give for `O=C1c2ccsc2SCCN1Cc1cccc(Cl)c1` here?
Its Potency is inconclusive [inhibitor, single point].

Which Potency does the source give for `CCn1cc(C(=O)NCCc2ccccc2)c(=O)c2cc(S(=O)(=O)N3CCc4ccccc4C3)ccc21` here?
The Potency was inconclusive [inhibitor, partial curve].

With `CC(=O)c1cccc(NC(=O)N2C3CCCC2CC(NC(=O)C2CC2)C3)c1` (stereo not given) as the molecule, how does the “activity change, negative = growth inhibition” value read?
Its value is inactive: 5.5%.

Which Potency does the source give for `CN(C)S(=O)(=O)c1cccc(C(=O)N=C2N=C3C=CC(Cl)=CN3Cc3ccccc32)c1` here?
Its Potency is inconclusive [inhibitor, single point].

Which Potency does the source give for `O=C(/C=C/c1ccco1)NC(=S)Nc1nc(-c2ccc3ccccc3c2)cs1` here?
The Potency was active: 3.26 µM.

Which Potency does the source give for `COc1cc(N(Cc2ccccc2)Cc2ccccc2)c2ncn(C(C)C)c2c1` here?
The Potency was inconclusive [inhibitor, single point].

With `Cc1cccc(CCNC(=O)COc2cc(=O)n(C)c3ccccc23)c1` as the molecule, how does the Potency read?
Its Potency is inconclusive [inhibitor, single point].

Which Potency does the source give for `Cc1ccc(S(=O)(=O)N/N=C\c2cc3c(cc2Br)OCO3)cc1` here?
The Potency was inconclusive [inhibitor, single point].

For `CCC(CC)NC(=O)COC(=O)c1cccc(C)c1O`, which “activity change, negative = growth inhibition” value is on record?
The value was inactive: -11.5%.

For `Cc1ccc(C(=O)N2CCN(C(=O)c3ccc(C)cc3)C2)cc1`, which “activity change, negative = growth inhibition” value is on record?
Its value is inactive: 3.71%.

For `COc1cc(/C=C/C(=O)OCC(=O)N2CCC(Cc3ccccc3)CC2)ccc1O`, which Potency is on record?
Its Potency is inconclusive [inhibitor, single point].

Which Potency does the source give for `COc1ccc(CSCCc2n[nH]c(=S)n2-c2ccccc2)cc1C` here?
Its Potency is inconclusive [inhibitor, full curve, poor fit].

With `O=C(C(c1ccccc1)c1ccccc1)N1CCN(CCN2C(=O)c3cccc4cccc(c34)C2=O)CC1` as the molecule, how does the Potency read?
The Potency was inconclusive [inhibitor, single point].

For `CCCCC(=O)NC(Nc1nc(C2CC2)cs1)(C(=O)OCC)C(F)(F)F` (stereo not given), which Potency is on record?
The Potency was inconclusive [inhibitor, single point].

For `COc1ccc(OC)c(CN2CCC(CNC(=O)Nc3cccc(Cl)c3)CC2)c1`, which Potency is on record?
The Potency was inconclusive [inhibitor, single point].

Which Potency does the source give for `O=S(=O)(NCCc1csc2nc(-c3ccc(Cl)cc3)nn12)c1ccc2c(c1)OCCO2` here?
The Potency was active: 14.6 µM.

With `COc1ccc([N+](=O)[O-])cc1N(CC(=O)N1CCCC1)S(C)(=O)=O` as the molecule, how does the “activity change, negative = growth inhibition” value read?
The value was inactive: -2.43%.

Which “activity change, negative = growth inhibition” value does the source give for `Cc1ccc2c(c1)CC[C@H]1CC(=O)CC[C@@]21C` here?
The value was inactive: 1.8%.

Which “activity change, negative = growth inhibition” value does the source give for `COC(=O)CSc1ccnc2cc(Cl)ccc12` here?
Its value is inactive: -0.625%.

With `CCOc1ccc(S(=O)(=O)N2CCN(C(=S)NCC3CCCO3)CC2)cc1` (stereo not given) as the molecule, how does the activity change, negative = growth inhibition read?
Its activity change, negative = growth inhibition is inconclusive: -30.2% [inhibitor].

With `O=C1NCCN/C1=C\C(=O)c1cccc(Br)c1` as the molecule, how does the “activity change, negative = growth inhibition” value read?
Its value is inactive: -20.6%.

Which Potency does the source give for `CCCn1c2ccccc2c2cnn(CC(=O)NCCCN(Cc3ccccc3)C(C)C)c(=O)c21` here?
Its Potency is inconclusive [inhibitor, single point].

For `CN(C)c1cccc(-c2cc(Nc3ccc(C(C)(C)C)cc3)ncn2)c1`, which Potency is on record?
Its Potency is active: 20.6 µM.

With `CNC(=O)C1C2C=CC3(O2)C1C(=O)N(C1CC1)C3C(=O)NCc1ccc(OC)cc1` (stereo not given) as the molecule, how does the “activity change, negative = growth inhibition” value read?
Its value is inactive: 4.54%.

With `COc1ccc(CCNc2nc(SCc3cccc(F)c3)nc3ccccc23)cc1OC` as the molecule, how does the Potency read?
The Potency was active: 16.4 µM.

For `COc1ccc(C2C(C#N)=C(N)Oc3cc(C)n(Cc4ccncc4)c(=O)c32)cc1` (stereo not given), which Potency is on record?
Its Potency is active: 4.61 µM.

Which Potency does the source give for `CCOC(=O)C(NC(=O)N1CCCCC1)(c1ccccc1)C(F)(F)F` (stereo not given) here?
Its Potency is inconclusive [inhibitor, single point].

Which “activity change, negative = growth inhibition” value does the source give for `COc1ccc2c(c1)c1nnc(SC)nc1n2C` here?
Its value is inactive: -12.3%.

With `COc1cccc(C(C(=O)Nc2ccc(F)cc2)N(C(=O)Cn2nnc3ccccc32)C2CC2)c1` (stereo not given) as the molecule, how does the Potency read?
Its Potency is inconclusive [inhibitor, full curve, poor fit].

With `O=C1CSC(=S)N1Cc1cccs1` as the molecule, how does the Potency read?
Its Potency is inconclusive [inhibitor, single point].

Which Potency does the source give for `COC(=O)c1ccc2c(=O)n(CCCCCC(=O)NCc3ccc(OC)cc3)c(=O)[nH]c2c1` here?
Its Potency is active: 23.1 µM.

With `COc1ccc(Nc2cc(C(=O)NCCCN(C)C3CCCCC3)c3ccccc3n2)c(OC)c1` as the molecule, how does the Potency read?
The Potency was inconclusive [inhibitor, single point].

For `Cc1ccc2c(C(=O)N3CCN(c4ccccc4)CC3)cc(-c3cccnc3)nc2c1C`, which Potency is on record?
The Potency was inconclusive [inhibitor, single point].

For `CCOC(=O)C1(CCOc2ccccc2)CCN(Cc2ccc(O)cc2)CC1`, which Potency is on record?
Its Potency is inconclusive [inhibitor, single point].

For `CCCCOc1cc(C)nc(NCc2ccccc2)n1`, which Potency is on record?
The Potency was active: 4.11 µM.

Which Potency does the source give for `COc1ccc(-c2cc(C)no2)cc1S(=O)(=O)N1CCOc2ccc(Cl)cc21` here?
Its Potency is inconclusive [inhibitor, single point].

For `Cc1ccc(/C=C/c2nc3ccccc3c(=O)n2CCc2ccccc2)cc1`, which Potency is on record?
Its Potency is inconclusive [inhibitor, single point].

With `O=C(NCc1ccccc1)c1cc(=O)c2ccccc2o1` as the molecule, how does the Potency read?
The Potency was inconclusive [inhibitor, single point].

For `Cc1ccc(S(=O)(=O)C(NC(=O)c2ccccc2)=C(Cl)Cl)cc1`, which Potency is on record?
The Potency was active: 23.1 µM.

For `O=C(c1ccc(-n2ccnc2)cc1)N1CCCC(CO)(Cc2cccc(Cl)c2)C1` (stereo not given), which Potency is on record?
Its Potency is active: 4.61 µM.

Which Potency does the source give for `CC(O)(c1ccccc1)c1nc(-c2ccc(Cl)cc2)cs1` (stereo not given) here?
The Potency was inconclusive [inhibitor, partial curve].

With `CC(=O)Nc1ccc(SCC(=O)NC(=O)c2ccc(S(=O)(=O)N(C)C)cc2)cc1` as the molecule, how does the “activity change, negative = growth inhibition” value read?
Its value is inactive: 6.04%.

For `C[C@@H]1CN([C@H](C)CO)C(=O)c2cc(C#CC(C)(C)O)cnc2O[C@@H]1CN(C)C(=O)C1CC1`, which “activity change, negative = growth inhibition” value is on record?
The value was inactive: 1.16%.

Which “activity change, negative = growth inhibition” value does the source give for `CC(=O)Nc1ccc(S(=O)(=O)N(C)CC(=O)N/N=C/c2cccc(O)c2)cc1` here?
The value was inactive: 7.16%.

For `COc1ccc(-c2c(C#N)c(N)nc3sc(C(=O)c4ccccc4)c(N)c23)cc1`, which Potency is on record?
Its Potency is inconclusive [inhibitor, single point].

For `Cc1ccc(NC(=S)N(CCCN(C)C)Cc2cc3cc4c(cc3[nH]c2=O)OCO4)cc1`, which “activity change, negative = growth inhibition” value is on record?
Its value is inactive: 2.48%.

Which Potency does the source give for `Cc1ccc(/C=N/NC(=O)c2csc3c2CCCC3)cc1` here?
The Potency was active: 1.3 µM.

For `c1ccc(-c2nc3c4ccccc4ccn3c2Cc2ccsc2)cc1`, which Potency is on record?
The Potency was active: 23.1 µM.

For `CCSC1=C(C#N)C(c2ccc(Cl)cc2)C2=C(CCCC2=O)N1` (stereo not given), which Potency is on record?
Its Potency is active: 1.46 µM.

With `CCOC(=O)C1CCCN(C(=O)c2ccc3c(c2)NC(=O)C(N2CCOCC2)S3)C1` (stereo not given) as the molecule, how does the Potency read?
The Potency was inconclusive [inhibitor, partial curve].

For `O=C(NCCC1=CCCCC1)C1CCN(S(=O)(=O)c2cccc(C(F)(F)F)c2)CC1`, which Potency is on record?
Its Potency is inconclusive [inhibitor, single point].

With `CCOc1ccc(S(=O)(=O)N/N=C(\C)c2ccc(OC)cc2OC)cc1` as the molecule, how does the Potency read?
The Potency was inconclusive [inhibitor, single point].

With `Cc1nn(-c2ccc(N3CCOCC3)nn2)c(C)c1CCC(=O)Nc1ccc(F)cc1F` as the molecule, how does the Potency read?
The Potency was inconclusive [inhibitor, single point].

Which Potency does the source give for `O=C(Nc1ccc(F)c(Cl)c1)NC1CC1` here?
Its Potency is inconclusive [inhibitor, single point].

With `O=C(Nc1ccc(NC(=O)c2ccccc2F)cn1)c1ccco1` as the molecule, how does the Potency read?
Its Potency is inconclusive [inhibitor, single point].
